The source of these data is the supplement of paper PMC9446081.

Molecules are shown by their SMILES. The campaign covered roughly 39,000 compounds. About 220 (0.56%) showed activity. This is one part of the list.
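Further: static incubation at 37 °C against the wild-type strain, values averaged over two biological replicates.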

The subject of this test is Escherichia coli K-12 BW25113. The experiment in a line: relative growth (OD600 normalised to plate interquartile mean) (fraction); higher = less growth inhibition, active = 0.2 or less. The conditions noted are these: 50 µM; LB; incubation time: overnight (16-24 h).
`CN(CC(=O)O)S(=O)(=O)c1ccc(F)cc1`: the relative growth was inactive: 0.983.

As to `Cn1c(=O)c2c(ncn2C[C@@H](O)CNc2ccc(Br)cc2)n(C)c1=O`, the relative growth is inactive: 0.994.

As for `O=C(C[C@@H]1CC[C@H]2[C@@H](COC[C@H](O)CN2S(=O)(=O)c2cccc(F)c2)O1)NCCCN1CCOCC1`, the relative growth was inactive: 0.982.

Regarding `CCCN(C)C[C@@H]1OCCCC[C@@H](C)Oc2ccc(NC(=O)NC3CCCCC3)cc2C(=O)N([C@H](C)CO)C[C@@H]1C`, the relative growth is inactive: 1.03.

Consider `CC(C)CC(=O)C(=O)O`, for which the relative growth is inactive: 1.01.

Consider `COc1ccc(CN(C)C[C@@H]2Oc3ccc(NC(=O)C4CC4)cc3CC(=O)N([C@@H](C)CO)C[C@H]2C)cc1`, for which the relative growth was inactive: 1.02.

`C[C@@H]1CN([C@@H](C)CO)C(=O)c2cccc(NC(=O)C3CCCCC3)c2O[C@H]1CN(C)C(=O)Nc1cccc2ccccc12`: the relative growth was inactive: 0.976.

As for `O=S1(=O)C[C@H](O)[C@@H](N2CCN(CCO)CC2)C1`, the relative growth was inactive: 1.01.

Consider `COc1ccc(NC(=O)Nc2ccc3c(c2)C(=O)N([C@@H](C)CO)C[C@H](C)[C@@H](CN(C)S(=O)(=O)c2ccc(C)cc2)OCCCC[C@H](C)O3)cc1`, for which the relative growth is inactive: 1.04.

For `Cc1noc(C)c1S(=O)(=O)N(C)C[C@H]1Oc2ccc(NS(=O)(=O)c3ccc(Cl)cc3)cc2CC(=O)N([C@@H](C)CO)C[C@H]1C`, the relative growth is inactive: 1.

In the case of `C[C@H](CO)N1C[C@H](C)[C@@H](CN(C)Cc2ccncc2)OCCCC[C@H](C)Oc2ccc(NC(=O)Nc3ccc4c(c3)OCO4)cc2C1=O`, the relative growth was inactive: 0.976.

On to `Cc1ccc(S(=O)(=O)N[C@@H]2CC[C@@H](CC(=O)N3CCC(Cc4ccccc4)CC3)O[C@H]2CO)cc1`, for which the relative growth is inactive: 0.989.

On to `C[C@@H]1CN([C@@H](C)CO)C(=O)c2cc(NC(=O)Nc3ccc(C(F)(F)F)cc3)ccc2O[C@@H](C)CCCCO[C@@H]1CN(C)S(=O)(=O)c1cn(C)cn1`, for which the relative growth was inactive: 0.978.

As to `C[C@@H]1CN([C@@H](C)CO)C(=O)c2cc(NC(=O)Cn3cnnn3)ccc2O[C@@H]1CN(C)C(=O)Nc1cccc2ccccc12`, the relative growth was inactive: 1.02.

Regarding `CO[C@H]1CN(C)C(=O)c2cc(NS(=O)(=O)CC(F)(F)F)ccc2OC[C@H](C)N(Cc2nccs2)C[C@@H]1C`, the relative growth is inactive: 0.999.

For `COc1ccc(S(=O)(=O)N(C)C[C@@H]2OCCCC[C@@H](C)Oc3ccc(NC(=O)Nc4ccccc4)cc3C(=O)N([C@H](C)CO)C[C@@H]2C)cc1`, the relative growth was inactive: 1.02.

As for `C[C@@H]1CN([C@H](C)CO)C(=O)c2cc(NC(=O)Nc3cccc4ccccc34)ccc2O[C@@H](C)CCCCO[C@@H]1CN(C)S(=O)(=O)c1ccc(F)cc1`, the relative growth is inactive: 1.

`O=C(C[C@@H]1C[C@@H]2c3cc(NS(=O)(=O)c4ccc(F)cc4)ccc3O[C@@H]2[C@H](CO)O1)N1CCOCC1`: the relative growth is inactive: 1.

With `C[C@@H]1CCCCO[C@@H](CN(C)S(=O)(=O)c2cccs2)[C@@H](C)CN([C@@H](C)CO)C(=O)c2cc(NC(=O)NC3CCCCC3)ccc2O1`, the relative growth is inactive: 1.02.

Regarding `OCCC[C@@H](O)c1ccc(OCCO)cc1`, the relative growth is inactive: 1.

Turning to `CCCC#Cc1cnc2c(c1)C(=O)N([C@@H](C)CO)C[C@H](C)[C@H](CN(C)S(=O)(=O)c1cccc(OC)c1)O2`, the relative growth is inactive: 1.01.

In the case of `C[C@H]1CCCCO[C@H](CN(C)Cc2ccc(C(=O)O)cc2)[C@@H](C)CN([C@@H](C)CO)C(=O)c2cc(NC(=O)Cc3ccccc3)ccc2O1`, the relative growth was inactive: 0.982.

Regarding `Cc1noc(C)c1S(=O)(=O)Nc1ccc2c(c1)C(=O)N([C@H](C)CO)C[C@@H](C)[C@@H](CN(C)C(=O)Nc1ccc3c(c1)OCO3)O2`, the relative growth is inactive: 0.991.

On to `Cn1nc(CN2CCCC2=O)c2c1CNC2`, for which the relative growth is inactive: 1.01.

Consider `C[C@@H]1CN([C@H](C)CO)C(=O)c2cccc(NC(=O)c3ccc(-c4nccs4)cc3)c2O[C@H]1CN(C)C(=O)Nc1ccc2c(c1)OCO2`, for which the relative growth was inactive: 0.995.

With `C[C@@H]1CCCCO[C@@H](CN(C)S(=O)(=O)c2cccs2)[C@@H](C)CN([C@@H](C)CO)C(=O)c2cc(NS(=O)(=O)c3cn(C)cn3)ccc2O1`, the relative growth was inactive: 1.01.

On to `O=C(C[C@H]1CC[C@@H]2[C@H](COC[C@@H](O)CN2C(=O)Nc2ccc(Cl)cc2)O1)NC1Cc2ccccc2C1`, for which the relative growth is inactive: 0.902.

On to `CC(=O)OC1CC23CC24CCC(OC2OCC(O)C(O)C2O)C(C)(C)C4CCC3C2(C)CC3OC4(CC(C)C3C12C)OC(O)C1(C)OC41` (stereo unspecified), for which the relative growth was inactive: 0.869.

With `COCC(=O)Nc1ccc2c(c1)C(=O)N(C)[C@H]1CC[C@@H](CC(=O)N3CCc4ccccc4C3)O[C@H]1CO2`, the relative growth was inactive: 1.02.

With `C[C@@H]1CN([C@@H](C)CO)C(=O)c2cc(NC(=O)Cn3cnnn3)ccc2O[C@H]1CN(C)S(=O)(=O)c1cccs1`, the relative growth was inactive: 0.977.

Consider `CC(C)N(C[C@H]1O[C@@H](n2cnc3c(N)ncnc32)[C@H](O)[C@@H]1O)[C@H]1C[C@@H](CCc2nc3ccc(C(C)(C)C)cc3[nH]2)C1`, for which the relative growth was inactive: 0.982.

For `NC(=O)c1cc(N)ccc1F`, the relative growth is inactive: 0.985.

Turning to `C[C@@H](N)c1cnn(-c2ccc(F)cc2)c1`, the relative growth was inactive: 0.947.

`Cc1noc(C)c1NC(=O)Nc1ccc2c(c1)C(=O)N([C@@H](C)CO)C[C@@H](C)[C@@H](CN(C)S(=O)(=O)c1ccc(F)cc1)OCCCC[C@H](C)O2`: the relative growth was inactive: 0.985.

Consider `O=c1nc(NCc2ccco2)cc[nH]1`, for which the relative growth is inactive: 1.05.

In the case of `Cc1ccnc(NC(=O)c2cc3sc4ccccc4c3s2)c1`, the relative growth is inactive: 0.927.

In the case of `C[C@H]1CN([C@@H](C)CO)C(=O)c2cc(NS(=O)(=O)c3cn(C)cn3)ccc2O[C@H]1CN(C)C(=O)NC1CCCCC1`, the relative growth was inactive: 0.987.

`Cc1ccc(S(=O)(=O)Nc2ccc3c(c2)C(=O)N([C@H](C)CO)C[C@H](C)[C@@H](CN(C)Cc2ccc(-c4ccccc4)cc2)O3)cc1`: the relative growth was inactive: 0.987.

Regarding `C[C@H]1CN([C@@H](C)CO)C(=O)Cc2cc(NS(=O)(=O)c3cccs3)ccc2O[C@H]1CN(C)Cc1ccncc1`, the relative growth is inactive: 1.

As for `C[C@@H]1CN([C@@H](C)CO)C(=O)c2cc(NC(=O)CCCN(C)C)ccc2O[C@H]1CN(C)Cc1ccncc1`, the relative growth was inactive: 1.

Regarding `C[C@@H]1CN([C@@H](C)CO)C(=O)c2cc(C#Cc3cccc(F)c3)cnc2O[C@H]1CN(C)CC1CCOCC1`, the relative growth is inactive: 1.01.

In the case of `CC(C)CC#Cc1cnc2c(c1)C(=O)N([C@H](C)CO)C[C@H](C)[C@H](CN(C)S(=O)(=O)c1cn(C)cn1)O2`, the relative growth is inactive: 0.982.

Take `NCC[C@H]1CC[C@@H](NC(=O)c2ccccc2F)[C@@H](CO)O1`: the relative growth is inactive: 0.99.

For `C[C@H](O)C#Cc1ccc2c(c1)O[C@@H](CN(C)C(=O)Cc1ccccn1)[C@H](C)CN([C@H](C)CO)S2(=O)=O`, the relative growth is inactive: 0.99.

With `C[C@H](CO)N1C[C@H](C)[C@H](CN(C)S(=O)(=O)c2ccc(Cl)cc2)OCCCC[C@H](C)Oc2ccc(NC(=O)Nc3ccc(C(F)(F)F)cc3)cc2C1=O`, the relative growth is inactive: 1.

As for `COc1ccc(S(=O)(=O)Nc2ccc3c(c2)C(=O)N([C@@H](C)CO)C[C@H](C)[C@H](CN(C)C(=O)c2ccccc2)OCCCC[C@H](C)O3)cc1`, the relative growth was inactive: 1.

For `CC(=O)Oc1cccc(C)c1` [meta-CRESYL ACETATE], the relative growth is inactive: 0.958.

As for `CN(C)S(=O)(=O)Nc1ccc(C(=O)O)cc1`, the relative growth is inactive: 0.993.

With `C[C@@H]1CCCCO[C@@H](CN(C)CC2CC2)[C@H](C)CN([C@@H](C)CO)C(=O)c2cc(NC(=O)CCC(F)(F)F)ccc2O1`, the relative growth was inactive: 0.995.

As to `COc1ccc(NC(=O)Nc2ccc3c(c2)C(=O)N([C@H](C)CO)C[C@H](C)[C@@H](CN(C)S(=O)(=O)c2ccc(OC)cc2)OCCCC[C@H](C)O3)cc1`, the relative growth was inactive: 1.03.

Regarding `C[C@@H]1CN([C@H](C)CO)C(=O)Cc2cc(NC(=O)CCN3CCOCC3)ccc2O[C@H]1CN(C)S(=O)(=O)c1cccs1`, the relative growth was inactive: 1.01.

On to `O=C(O)C[C@@H]1CC[C@H]2[C@@H](COC[C@H](O)CN2S(=O)(=O)c2ccc(F)cc2)O1`, for which the relative growth was inactive: 0.975.

In the case of `C[C@@H]1CCCCO[C@@H](CN(C)S(=O)(=O)c2cn(C)cn2)[C@@H](C)CN([C@H](C)CO)C(=O)c2cc(NS(=O)(=O)c3cccs3)ccc2O1`, the relative growth was inactive: 0.947.

In the case of `C[C@@H]1CN([C@@H](C)CO)C(=O)c2cccc(NC(=O)c3ccncc3)c2O[C@@H]1CN(C)Cc1ccc(-c2ccccc2)cc1`, the relative growth was inactive: 1.01.

As to `C[C@@H]1CCCCO[C@@H](CN(C)S(=O)(=O)c2ccc(F)cc2)[C@H](C)CN([C@@H](C)CO)C(=O)c2cc(NS(C)(=O)=O)ccc2O1`, the relative growth is inactive: 0.988.

Regarding `C[C@@H]1CN([C@H](C)CO)C(=O)Cc2cc(NC(=O)Cn3cnnn3)ccc2O[C@H]1CN(C)Cc1ccc(Oc2ccccc2)cc1`, the relative growth was inactive: 0.937.

On to `C[C@@H]1CN([C@H](C)CO)S(=O)(=O)c2ccc(C#CCC3CCCC3)cc2O[C@@H]1CN(C)C(=O)CN(C)C`, for which the relative growth is inactive: 1.01.

Take `CC(C)NC(=O)Nc1ccc2c(c1)C(=O)N([C@@H](C)CO)C[C@H](C)[C@@H](CN(C)Cc1ccc(Cl)c(Cl)c1)OCCCC[C@H](C)O2`: the relative growth was inactive: 1.02.

As for `CO[C@H]1CN(C)C(=O)c2cc(NC(=O)Nc3ccccc3)ccc2OC[C@H](C)N(C(=O)CN(C)C)C[C@@H]1C`, the relative growth is inactive: 0.977.

Regarding `O=C(O)C[C@](O)(Cc1ccc(O)cc1)C(=O)O`, the relative growth was inactive: 1.01.

As for `C[C@@H]1CCCCO[C@H](CN(C)Cc2ccccc2)[C@@H](C)CN([C@H](C)CO)C(=O)c2cc(NC(=O)NC3CCCCC3)ccc2O1`, the relative growth is inactive: 0.976.
